PubChem BioAssay AID1508642 (National Center for Advancing Translational Sciences (NCATS), 2021)
Hit rate of the full screen: of about 43,000 compounds, about 200 (0.47%) were called active. About 12% were inconclusive and are not listed. Calls come from the whole dose curve; as a rule, active = well fitted cell-killing curve with a large enough effect; inconclusive = small, poorly fitted or top-dose-only effect, or effect the other way; inactive = flat fitted curve, though single readings scatter. The list shows a part of the results.

experiment: Cell viability qHTS assay in S16 Pmp22-F2sN cells; conditions: S16 Pmp22-F2sN Schwann cells viability, CellTiter-Glo, 24 h; series mostly up to 57.5 µM; activity change, negative = cytotoxicity: at the top concentration; note: nearly all actives have a fitted effect of over 65% in size
Summary of the method: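 Viability was measured by CellTiter-Glo luminescence (15 min, room temperature). This followed 24 h at 37 °C of compound exposure (23 nL pin transfer) in S16 Pmp22-F2sN Schwann cells, 500-1,000 per well.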
% is set by controls: 0 for no effect and ±100 for the full control effect.

Compound	activity change, negative = cytotoxicity
COC(=O)CNC(c1ccccc1)c1cc(Br)ccc1NC(=O)c1ccccc1 (stereo not drawn)	inactive: 4.93%
COc1cccc(-n2cc(C(=O)Nc3cc(OC)c(OC)c(OC)c3)c3ccccc3c2=O)c1	inactive: -9.44%
COc1cccc(CNC(=O)CSc2nnc(C)c3c(C)n(-c4ccccc4)nc23)c1OC	inactive: -15.7%
CCOC(=O)C1CCCN(C(=O)Cn2ncc3c(C)n(Cc4ccccc4F)c(C)c3c2=O)C1 (stereo not drawn)	inactive: -4.33%
Cc1ccc(C(=O)CSc2ncc3c(n2)-c2ccccc2N(Cc2ccc(Cl)cc2)S3(=O)=O)cc1	inactive: 0.327%
CCc1ccc2oc(-c3cccc(NC(=O)c4cc5ccccc5o4)c3)nc2c1	inactive: 1.44%
Cc1nc2c(C(=O)O)cnn2c(C)c1Cc1ccccc1	inactive: -7.97%
Cc1ccccc1C(=O)Nc1nc2nc(C)c(C)c(=O)n2[nH]1	inactive: 10.6%
CCCc1nn2c(=O)cc(COC(=O)c3ccc(NC(=O)CCc4ccccc4)cc3)nc2s1	inactive: 0.0159%
COc1cccc(NC(=O)c2sc3nc4n(c(=O)c3c2C)CCC4)c1	inactive: 6.41%
CCCCOc1ccc(CNC(=O)c2ccc(-c3nc(CN4CCc5ccccc54)c(C)o3)cc2)cc1	inactive: 16.8%
COc1ccc(NC(=O)Cn2c(=O)cc(C)c3c(C)nn(-c4cccc(Cl)c4C)c32)cc1OC	inactive: -0.142%
O=C(NCCc1csc(-c2ccc(F)cc2)n1)c1cccs1	inactive: -0.88%
O=C(NC1CC(=O)N(c2ccc3c(c2)OCCO3)C1)c1c(F)cccc1Cl (stereo not drawn)	inactive: 8.35%
CCOC(=O)c1cc(-c2ccccc2)n(CC(=O)NC2CCC(C)CC2)c1C (stereo not drawn)	inactive: 0.952%
COc1ccc(-c2noc(CSc3nnc(Cc4ccccc4)n3-c3ccccc3)n2)cc1OC	inactive: -23.4%
CCOC(=O)c1cnc2c(ccc3ccccc32)c1Nc1ccccc1OC	inactive: 2.66%
Cc1ccc(-c2nn(-c3ccc(F)cc3F)c3c2cnc2c(F)cccc23)cc1	inactive: 13%
Cc1ccc(NC(=O)CSc2nc3ccccc3c3nc(CCc4c(C)n[nH]c4C)nn23)c(C)c1	inactive: 6.3%
Cc1ccc2c(c1)c(=O)c(C(=O)c1ccc3c(c1)OCO3)cn2Cc1cccc(F)c1	inactive: 5.09%
COCCNc1oc(-c2ccc(COc3ccc(OC)cc3)o2)nc1C#N	inactive: -14.8%
COc1cc(OC)c(NC(=O)C(NS(=O)(=O)c2cccc3nsnc23)c2ccccc2)cc1Cl (stereo not drawn)	inactive: 0.86%
Cc1ccc(CN2COc3cc(C)c4c(oc(=O)c5ccccc54)c3C2)cc1	inactive: 17.5%
CCOc1cc(C2NC(=O)c3c(sc4c3CCN(C)C4)N2)ccc1OC(=O)c1ccccc1Cl (stereo not drawn)	inactive: 4.57%

Compound	activity change, negative = cytotoxicity
COc1ccc(-c2[nH]c(-c3ccccc3)nc2SCC(=O)Nc2ccc3c(c2)OCCO3)cc1	inactive: -4.13%
Cc1ccc2[nH]c(C(=O)Nc3ccccc3)cc2c1	inactive: 5.64%
Cc1ccnc(NC(=O)c2c(C)oc3ncn(CC(C)C)c(=O)c23)c1	inactive: -8.65%
Cc1ccc(CNC(=O)Nc2cn(CC(C)C)c(=O)c3ccccc23)cc1	inactive: -3.19%
CCc1ccc(-c2nc(CN3CCCC(C(=O)NCc4ccc(C)cc4)C3)c(C)o2)cc1 (stereo not drawn)	inactive: 4.56%
COc1ccc(-c2cc3nc(C)c(CCC(=O)Nc4cccc(C(F)(F)F)c4)c(C)n3n2)c(OC)c1	inactive: 5.46%
CCCCCOc1ccc(NC(=O)Cc2csc(C)n2)cc1	inactive: -1.82%
Cc1ccc(C(=O)Nc2ccccc2C(=O)O)cc1S(=O)(=O)N1CCCCCC1	inactive: 8.39%
O=C(Nc1sc2c(c1C(=O)Nc1ccc(Cl)cc1)CCCC2)c1cccs1	inactive: 0.162%
Cc1nnc(SCc2ccccc2Cl)c2cc3sccc3n12	inactive: 1.23%
CN(C(=O)Cn1cc(S(=O)(=O)N2CCN(c3ccccc3F)CC2)c2ccccc2c1=O)c1ccc(Cl)cc1	inactive: -10.5%
COCC(C)NC(=O)c1cnn2c(C(F)F)cc(-c3ccccc3)nc12 (stereo not drawn)	inactive: 14.3%
Cc1cc(C)c(NC(=O)CN2c3ccccc3S(=O)(=O)c3ccccc32)c(C)c1	inactive: -0.661%
COc1cc(-c2cc(OC)c3c(C)oc(C)c3c(=O)c2)ccc1OC(=O)c1ccccc1F	inactive: 0.909%
COc1ccccc1C(=O)NC1=NC(c2ccc(Br)cc2)CC(=O)N1 (stereo not drawn)	inactive: -3.08%
CCOC(=O)c1c(NC(C)=O)c2c3c(sc2n1Cc1nc(-c2cccc(C)c2)oc1C)CCCC3	inactive: 20%
O=[N+]([O-])c1cc(-c2nc(-c3ccccc3)no2)ccc1NC1CCCC1	inactive: 0.809%
COc1ccc(CN2C(=O)N(c3ccc(C)cc3)C(=O)C2CC(=O)Nc2ccccc2)cc1OC (stereo not drawn)	inactive: -0.204%
Cc1ccc(-n2c(-c3ccco3)nc3c(cnn3-c3ccccc3C)c2=O)cc1	inactive: 22.5%
COC(=O)c1cc(NS(=O)(=O)c2cc(Br)cc3c2N(C(C)=O)CC3)cc(C(=O)OC)c1	inactive: 0.104%
COCCn1c(=N)c(C(=O)NCc2ccco2)cc2c(=O)n3cc(C)ccc3nc21	inactive: 25%
Cc1ccc2nc(NCCc3ccccc3)c3nncn3c2c1	inactive: 8.94%
Cc1nn(-c2ccccc2)c(OC(=O)C(C)(C)C)c1Sc1ccccc1	inactive: 0.233%
CCn1c(=O)cc(OCC(=O)Nc2ccc(C)c(F)c2)c2ccccc21	inactive: 17.7%
